# Assay results as given in PubChem BioAssay AID1468 (National Center for Advancing Translational Sciences (NCATS), 2008).
# Screen size: about 280,000 compounds; about 1,100 (0.39%) were called active. This list was built around the results that the source calls inconclusive (neither active nor inactive); the mix of calls is not that of the screen. Calls come from the whole dose curve; as a rule, active = well fitted inhibition curve with a large enough effect; inconclusive = small, poorly fitted or top-dose-only effect, or effect the other way; inactive = flat fitted curve, though single readings scatter. No potency is given beside an inconclusive call; the fits are too rough.
# Target: Microtubule-associated protein tau (Homo sapiens) (UniProt P10636)
# UniProt P10636, sequence (P10636 whole entry, looked up): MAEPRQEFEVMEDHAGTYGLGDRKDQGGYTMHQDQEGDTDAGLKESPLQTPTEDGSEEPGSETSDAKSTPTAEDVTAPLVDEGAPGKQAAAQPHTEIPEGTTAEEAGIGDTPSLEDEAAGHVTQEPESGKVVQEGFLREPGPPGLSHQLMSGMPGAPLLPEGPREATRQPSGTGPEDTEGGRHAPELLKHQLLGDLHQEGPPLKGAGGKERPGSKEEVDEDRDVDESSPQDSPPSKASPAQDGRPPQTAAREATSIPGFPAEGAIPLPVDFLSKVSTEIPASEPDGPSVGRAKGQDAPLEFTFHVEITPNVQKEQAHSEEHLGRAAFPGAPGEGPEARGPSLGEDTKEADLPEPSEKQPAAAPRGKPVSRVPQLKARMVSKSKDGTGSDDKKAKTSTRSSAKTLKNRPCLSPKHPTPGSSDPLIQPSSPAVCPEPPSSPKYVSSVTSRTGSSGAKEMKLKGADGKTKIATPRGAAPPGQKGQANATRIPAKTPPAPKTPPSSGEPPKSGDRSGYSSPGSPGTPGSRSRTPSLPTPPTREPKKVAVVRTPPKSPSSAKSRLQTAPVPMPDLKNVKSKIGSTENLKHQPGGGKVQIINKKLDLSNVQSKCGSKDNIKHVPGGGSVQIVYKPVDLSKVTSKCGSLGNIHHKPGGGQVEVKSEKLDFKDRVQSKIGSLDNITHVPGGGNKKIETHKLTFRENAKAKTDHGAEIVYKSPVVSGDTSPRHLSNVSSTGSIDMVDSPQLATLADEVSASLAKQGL
# Test: qHTS for Inhibitors of Tau Fibril Formation, Fluorescence Polarization; note: nearly all actives have a fitted effect of over 55% in size
# Settings: K18 P301L tau heparin fibrillization, Alexa594 FP, 6 h; series mostly up to 57.7 µM
# In short: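 Human K18 P301L fragment (15 uM unlabeled plus 0.24 uM Alexa 594-labeled) in 100 mM sodium acetate pH 7 with compound, aggregation induced by 20 uM heparin for 6 hr at 37 C. ThT (30 uM) added for 1 hr, then Alexa 594 FP read.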
# Potency is the fitted concentration of half-maximal effect; tags give direction and shape of the fitted curve.
row,SMILES,Potency
1,Cc1ccc2nc(NC(=O)CSc3cc(C)[nH]c(=O)n3)sc2c1,"inconclusive [inhibitor, full curve, poor fit]"
2,CCOc1ccc(C(=O)N2CCc3cc(OC)c(OC)cc3C2COc2ccc3c(C)cc(=O)oc3c2)cc1OCC (configuration not stated),inactive
3,COc1ccccc1NC(=O)C(Sc1ccccc1)c1ccccc1 (configuration not stated),"inconclusive [inhibitor, single point]"
4,Cc1nnc(NC(=O)c2ccc(Br)cc2)s1,"inconclusive [inhibitor, single point]"
5,Cc1ccc(C)c(-n2nnnc2SCC(=O)Nc2cccc(-c3nnc4n3CCCCC4)c2)c1,inactive
6,Cc1cc(C)n(-c2ccn(Cc3ccc(Cl)cc3Cl)c(=O)n2)n1,inactive
7,O=C(CCN1C(=O)/C(=C/c2cccs2)SC1=S)NNC(=O)c1cccc(O)c1,active: 35.5 µM
8,NC(=O)c1c(NC(=O)CCCn2cnc([N+](=O)[O-])n2)sc2c1CCCC2,"inconclusive [inhibitor, single point]"
9,O=C(Cc1nc(=O)c2ccccc2s1)Nc1ccccc1,"inconclusive [inhibitor, single point]"
10,CCOc1ccccc1C(C(=O)NCCOC)N(CCOC)C(=O)Cn1nnc2ccccc21 (configuration not stated),inactive
11,CNC(=S)N/N=C/c1cn(Cc2ccc(F)cc2)c2ccccc12,"inconclusive [activator, partial curve, poor fit]"
12,Cc1cccc(NC(=O)c2ccc3[nH]c(C)cc(=O)c3c2)c1,"inconclusive [inhibitor, single point]"
13,COc1cccc(NC(=O)Nc2ccc3snnc3c2)c1,"inconclusive [inhibitor, partial curve]"
14,Nc1ccc(SC(F)(F)F)cc1C(=O)c1ccccc1,"inconclusive [inhibitor, partial curve]"
15,CCc1ccc2oc(-c3cccc(NC(=O)COc4ccccc4Cl)c3)nc2c1,inactive
16,Cc1sc2nc(SCC(=O)Nc3c(C)n(C)n(-c4ccccc4)c3=O)n(C)c(=O)c2c1C,inactive
17,COc1ccccc1NS(=O)(=O)c1cc(NC(=S)Nc2cc(C)cc(C)c2)ccc1Cl,"inconclusive [inhibitor, partial curve]"
18,Cc1c(C(=O)NCc2cccc(F)c2)oc2c1-c1[nH]ncc1CC2,inactive
19,Cc1nn(C)c(Oc2ccc(Cl)cc2)c1C(=O)O,"inconclusive [inhibitor, full curve, poor fit]"
20,COc1cc(NC(=O)C(CC(C)C)N2Cc3ccccc3C2=O)cc(OC)c1 (configuration not stated),inactive
21,CCOC(=O)C1=C(C)N=C2SC(C)C(=O)N2C1/C=C/c1ccccc1OC (configuration not stated),"inconclusive [inhibitor, partial curve]"
22,CCCCOc1ccc(CNC(=O)CN2C(=O)CCn3nc(-c4cn(C)c5ccccc45)cc32)cc1,"inconclusive [activator, partial curve, poor fit]"
23,Fc1ccc(Oc2nccc(-c3ccc(Cl)cc3)n2)cc1,"inconclusive [inhibitor, single point]"

row,SMILES,Potency
1,Nc1nc(Nc2cccc(Cl)c2)sc1C(=O)c1ccc(F)cc1,"inconclusive [activator, single point]"
2,C=CCn1c(COc2ccc(Cl)cc2)nnc1SCC(=O)Nc1ccc(S(N)(=O)=O)cc1,"inconclusive [inhibitor, single point]"
3,CCN(C1CCS(=O)(=O)C1)S(=O)(=O)c1cccs1 (configuration not stated),"inconclusive [inhibitor, full curve, poor fit]"
4,Cc1csc(NC(=O)c2nc3nccc(C)n3n2)n1,inactive
5,Cc1ccccc1C(=O)N1CCC(C(=O)Nc2ccc(F)cc2)CC1,"inconclusive [inhibitor, single point]"
6,COc1ccc2[nH]c3c4c(ccc3c2c1)C(=O)C=CC4=O,active: 11.2 µM
7,COc1ccc(-c2csc(Cc3nnc4n3CCCCC4)n2)cc1,inactive
8,O=C(CSc1ncc2c(n1)-c1cc(Cl)ccc1N(Cc1ccccc1)S2(=O)=O)NCCc1ccccc1,"inconclusive [inhibitor, single point]"
9,CCOC(=O)c1ccc(NC(=O)CSc2nc(-c3ccc(F)cc3)cc(C(F)(F)F)c2C#N)cc1,"inconclusive [inhibitor, partial curve, poor fit]"
10,CCOc1ccc(S(=O)(=O)N2CCN(C(=S)NCc3ccccc3)CC2)cc1,"inconclusive [inhibitor, single point]"
11,O=C(Nc1ccc(OCC(F)(F)C(F)F)c(C(F)(F)F)c1)c1ccccc1O,active: 25.1 µM
12,Cc1ccccc1N1C(S)=C(C#N)C(=O)NC1c1ccco1 (configuration not stated),"inconclusive [inhibitor, single point]"
13,COc1cccc(NC(=O)Cn2nnc(C(=O)NCc3ccc4c(c3)OCO4)c2N)c1,"inconclusive [inhibitor, partial curve]"
14,COc1ccc(/C=C/C(=O)NCC(=O)n2nc(C)cc2C)cc1,"inconclusive [inhibitor, full curve, poor fit]"
15,CSc1ncc(Cl)c(C(=O)N(C)c2ccccc2)n1,inactive
16,Cc1cc(C)c(NC(=O)CSc2nc(=O)n(Cc3cccnc3)c3c2CCC3)c(C)c1,inactive
17,CC(C)CNC(=S)NC(=O)c1ccc([N+](=O)[O-])cc1,inactive
18,CSc1ccc(/C=C/c2nc3ccccc3n2S(=O)(=O)c2ccc(Br)cc2)cc1,"inconclusive [inhibitor, single point]"
19,COc1ccc(N=C2NC(=O)S/C2=C\c2ccc(N(C)C)cc2)cc1,"inconclusive [inhibitor, single point]"
20,Cc1ccc(S(=O)(=O)CC(=O)Nc2nc3c(C)cccc3s2)cc1,"inconclusive [inhibitor, single point]"
21,O=C(Nc1ccc(Cl)c(C(F)(F)F)c1)c1nc2ccccc2nc1N1CCCCC1,"inconclusive [inhibitor, full curve]"
22,CC1(C)CC(=O)C=C(NC2=CC3OC(c4ccccc4)OCC3OC2=O)C1 (configuration not stated),"inconclusive [inhibitor, single point]"
23,COc1ccc(-n2nnc(-c3nsc(NC(=O)c4cccc(C)c4)n3)c2C)cc1OC,"inconclusive [inhibitor, partial curve]"

row,SMILES,Potency
1,COc1ccccc1Nc1nc(N)nc(N)c1S(=O)(=O)c1ccccc1,"inconclusive [inhibitor, partial curve]"
2,COc1cccc(NC(=O)/C(C#N)=C/c2c(C)n(Cc3ccccc3)c3ccccc23)c1,"inconclusive [inhibitor, partial curve]"
3,CCOc1ccc(CN2C(=O)C(=O)c3cccc(C)c32)cc1OC,inactive
4,Cc1c(C(=O)Nc2ccc(F)cc2)oc2ccc(S(=O)(=O)N3CCCCCC3)cc12,"inconclusive [inhibitor, partial curve]"
5,COc1cc2c(cc1NC(=O)COc1ccc(Br)cc1)oc1ccccc12,"inconclusive [inhibitor, single point]"
6,COC(=O)c1ccc2c(=O)n(CCc3ccc(S(N)(=O)=O)cc3)c(SCC(=O)C(C)(C)C)nc2c1,"inconclusive [inhibitor, full curve, poor fit]"
7,O=C(CSc1nnc(COc2ccc(F)cc2)o1)N1c2ccccc2CCc2ccccc21,"inconclusive [inhibitor, single point]"
8,CS(=O)(=O)c1ccc2nc(NC(=O)c3cc4ccccc4o3)sc2c1,"inconclusive [inhibitor, single point]"
9,O=C(Nc1nc2ccccc2s1)c1ccc(OCC2CCCO2)cc1 (configuration not stated),"inconclusive [inhibitor, partial curve, poor fit]"
10,O=C(C1CCCCC1)N1CCN(c2ccnc3cc(Cl)ccc23)CC1,inactive
11,COc1ccccc1CNc1nc2ccccc2c2nc(-c3cccc(C)c3)nn12,"inconclusive [inhibitor, single point]"
12,N/C(=C\C(=O)c1cc(Cl)ccc1O)C(Cl)(Cl)Cl,"inconclusive [inhibitor, single point]"
13,COc1ccc(-c2nc3sc(CCNC(=O)C(=O)Nc4cc(F)ccc4F)c(C)n3n2)cc1,"inconclusive [inhibitor, partial curve]"
14,COc1ccc2cc3cc(C(=O)N4CCN(c5cccc(C(F)(F)F)c5)CC4)sc3nc2c1,inactive
15,O=C1NCC2(CCN(CCc3ccccc3)CC2)O1,"inconclusive [inhibitor, single point]"
16,CCOC(=O)c1cc(-c2ccccc2)sc1NC(=O)CN1C(=O)NC(CC)(c2ccc(F)cc2)C1=O (configuration not stated),"inconclusive [inhibitor, partial curve, poor fit]"
17,COc1ccccc1N1CCN(CCCNC(=O)c2nnc(Cc3ccc(F)cc3Cl)o2)CC1,inactive
18,CCN(CCO)c1nc(SC)nc2c1sc1nc(-c3ccco3)c3c(c12)CCC3,"inconclusive [inhibitor, single point]"
19,O=C(CCN1C(=O)/C(=C\c2cccs2)SC1=S)NC1=NCCS1,"inconclusive [inhibitor, single point]"
20,COc1cc(C2C(C(=O)Nc3ccc(Cl)cc3)=C(C)Nc3nc(SC)nn32)cc(OC)c1OC (configuration not stated),inactive
21,CC1=C(C(N)=O)C(c2cccc(Br)c2)n2nc(SCc3ccccc3Cl)nc2N1 (configuration not stated),"inconclusive [inhibitor, single point]"
